Screen size: about 310,000 compounds; about 2,200 (0.71%) showed an effect of 50% or more. Effects have a minus sign here. Some of the results follow.

Chain of human ether-à-go-go-related gene (hERG) potassium channel (Q12809 whole entry, looked up): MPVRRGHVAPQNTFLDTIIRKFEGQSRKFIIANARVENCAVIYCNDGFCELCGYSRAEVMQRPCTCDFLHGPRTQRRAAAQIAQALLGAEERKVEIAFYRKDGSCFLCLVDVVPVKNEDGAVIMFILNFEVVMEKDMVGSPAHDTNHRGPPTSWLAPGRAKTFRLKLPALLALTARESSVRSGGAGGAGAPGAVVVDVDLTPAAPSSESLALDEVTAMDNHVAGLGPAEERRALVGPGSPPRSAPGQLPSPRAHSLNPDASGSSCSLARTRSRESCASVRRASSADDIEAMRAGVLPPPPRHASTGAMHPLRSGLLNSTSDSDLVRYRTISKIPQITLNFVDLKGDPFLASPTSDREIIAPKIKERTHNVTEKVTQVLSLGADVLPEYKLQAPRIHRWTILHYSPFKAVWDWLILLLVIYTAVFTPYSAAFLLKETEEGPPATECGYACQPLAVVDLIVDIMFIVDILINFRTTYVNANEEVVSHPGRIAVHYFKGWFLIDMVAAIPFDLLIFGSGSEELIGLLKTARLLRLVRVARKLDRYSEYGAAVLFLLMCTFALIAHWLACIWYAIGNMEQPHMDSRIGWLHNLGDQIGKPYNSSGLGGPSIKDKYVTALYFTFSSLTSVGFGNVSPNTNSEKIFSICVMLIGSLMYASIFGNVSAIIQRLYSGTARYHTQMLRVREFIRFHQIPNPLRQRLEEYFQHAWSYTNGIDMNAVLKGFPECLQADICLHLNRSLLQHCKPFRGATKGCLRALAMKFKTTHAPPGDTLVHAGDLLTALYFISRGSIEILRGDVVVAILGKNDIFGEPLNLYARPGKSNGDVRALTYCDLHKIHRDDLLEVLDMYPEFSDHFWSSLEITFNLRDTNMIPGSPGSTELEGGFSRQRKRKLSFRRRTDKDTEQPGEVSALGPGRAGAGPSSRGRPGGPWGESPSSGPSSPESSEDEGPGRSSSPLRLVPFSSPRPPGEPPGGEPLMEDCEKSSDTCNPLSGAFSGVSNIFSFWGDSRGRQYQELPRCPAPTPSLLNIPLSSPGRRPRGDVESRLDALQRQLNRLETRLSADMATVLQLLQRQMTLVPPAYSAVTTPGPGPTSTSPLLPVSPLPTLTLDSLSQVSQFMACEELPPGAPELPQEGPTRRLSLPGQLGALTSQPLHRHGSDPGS

This test has as its target human ether-à-go-go-related gene (hERG) potassium channel (human, UniProt Q12809). Kind of test: primary screen, population patch clamp on CHO cells stably expressing hERG.
On to `CCOC(=O)N1CCN(Cc2nc3c(c(=O)n(C)c(=O)n3C)n2CCCc2ccccc2)CC1`, for which the “hERG current change (%, negative = inhibition) at 1uM” value is recorded as -9.67%.
As to `O=C1COCCOCCOCCOCC(=O)NCCN1`, the “hERG current change (%, negative = inhibition) at 1uM” value was 14%.
For `NC(=O)C1=C[C@H](c2ccccc2)C[C@H](OCc2ccc(CO)cc2)O1`, the “hERG current change (%, negative = inhibition) at 1uM” value turned out to be 12.9%.
The result for `CN(Cc1cccc(F)c1)CC(O)COCc1ccccc1Cl` (stereo not drawn) reads 2.83%; that for `CN(C(=S)Nc1ccc(Oc2ccccc2)cc1)c1ccc(O)cc1`, 5.67%.
Take `Clc1ccccc1CN(Cc1ccccc1)c1ncnc2nc[nH]c12`: the “hERG current change (%, negative = inhibition) at 1uM” value was found to be 27.7%.
As to `CCc1ccc(NC(=O)c2ccccc2SC)cc1`, the “hERG current change (%, negative = inhibition) at 1uM” value is 6.12%.
As for `COc1cccc(C(=O)Nc2cccc(OCC(=O)O)c2)c1`, the figure is 10.5%.
As to `Cc1ccc2sc(N(CCN(C)C)C(=O)/C=C/c3cccs3)nc2c1C.Cl`, the “hERG current change (%, negative = inhibition) at 1uM” value came to 15.7%.
Take `O=C(NCc1cccs1)c1ccc(N2CCCCC2)nc1`: the “hERG current change (%, negative = inhibition) at 1uM” value was found to be 2.34%.
On to `COc1ccc(OC)c(-c2csc(N(CC3CCCO3)C(=O)Cc3ccccc3)n2)c1` (stereo not drawn), for which the “hERG current change (%, negative = inhibition) at 1uM” value was 13.6%.
For the compound `COc1ccc(N2CCN(C(=O)COC(=O)c3ccc(Cl)nc3)CC2)cc1`, the “hERG current change (%, negative = inhibition) at 1uM” value was determined as 14.1%.
As for `CC(C)c1ccc(C(=O)NNC(=O)C2C3CCC(C3)C2C(=O)O)cc1` (stereo not drawn), the “hERG current change (%, negative = inhibition) at 1uM” value is recorded as -1.94%.
Consider `Cc1ccc(-n2nc3c(=O)n(CCCC(=O)NCc4ccc(Cl)cc4)nc(C)c3c2C)cc1`, for which the “hERG current change (%, negative = inhibition) at 1uM” value is 8.96%.
The result for `O=C(c1cc(S(=O)(=O)N2CCCCC2)ccc1N1CCOCC1)N1CCN(Cc2ccccc2)CC1` reads 9.4%; that for `COc1ccc2nc3sc(C(=O)NCCN4CCc5ccccc5C4)cc3cc2c1`, -7.11%.
In the case of `CN(C)S(=O)(=O)c1ccc(N2CCCC2)c(C(=O)Nc2ccccc2Br)c1`, the “hERG current change (%, negative = inhibition) at 1uM” value is given as -26.8%.
The result for `O=C(CSc1nnnn1-c1cccc2c1CCCC2)N1CCCCC1` reads -0.697%; that for `COc1ccc(C2=NS(=O)(=O)N(C)C(C(=O)Nc3cc(C)ccc3O)=C2)cc1OC`, -4.56%; that for `Cc1ccc(NC(=O)CS(=O)CC(=O)NCC2OCCc3ccccc32)c(C)c1` (stereo not drawn), 5.82%.
On to `Nc1nc(Nc2ccccc2F)nc(NCc2ccccc2)c1[N+](=O)[O-]`, for which the “hERG current change (%, negative = inhibition) at 1uM” value turned out to be 13%.
For the compound `CS(=O)(=O)N(CC(=O)N/N=C/c1cc2c(cc1Br)OCO2)c1ccccc1Br`, the “hERG current change (%, negative = inhibition) at 1uM” value came out at 1.19%.
The result for `O=C(NCc1cn2ccccc2n1)c1ccc2c(c1)OCO2` reads 14.2%.
As to `COc1ccc(NC(=O)c2ccc3[nH]c(C)c(C)c3c2)cc1`, the “hERG current change (%, negative = inhibition) at 1uM” value was determined as 11.1%.
As to `CC1(C)COC(c2cc([N+](=O)[O-])ccc2Cl)=N1`, the “hERG current change (%, negative = inhibition) at 1uM” value is 4.69%.
Regarding `N#Cc1c(-c2ccccc2)nc(SCC(=O)Nc2ccccc2)[nH]c1=O`, the “hERG current change (%, negative = inhibition) at 1uM” value stood at 2.31%.
Take `O=C(CCl)N(Cc1cc(=O)[nH]c2ccccc12)c1ccccc1`: the “hERG current change (%, negative = inhibition) at 1uM” value turned out to be 5.59%.
Turning to `Cc1cc(C)c(C#N)c(N2CCN(Cc3ccccc3)CC2)n1`, the “hERG current change (%, negative = inhibition) at 1uM” value is given as -3.66%.
With `Cc1ccccc1CCN(C(=O)c1csnn1)C(C(=O)NC1CCCC1)c1ccco1` (stereo not drawn), the “hERG current change (%, negative = inhibition) at 1uM” value was 12.4%.
On to `COc1cccc(CNC(=O)CCC2CCCN(C(=O)c3cccnc3SC)C2)c1` (stereo not drawn), for which the “hERG current change (%, negative = inhibition) at 1uM” value was 15.7%.
The result for `CC(=O)Nc1ccc(S(=O)(=O)NCCOc2ccc(Cl)cc2C)cc1` reads 10.8%; that for `CCOc1cccc(-c2nn3c(-c4cc(C)[nH]n4)nnc3s2)c1`, -8.21%; that for `O=C(Nc1ncccc1O)c1ccc(S(=O)(=O)N2CCCC2)cc1`, 11.8%.
Regarding `CN(Cc1ccccn1)Cc1nc(Cc2ccccc2Cl)no1`, the “hERG current change (%, negative = inhibition) at 1uM” value is given as 1.03%.
For `COc1cc2c(=O)c(-c3ccc(O)cc3)coc2cc1OC1OC(CO)C(O)C(O)C1O` (stereo not drawn), the “hERG current change (%, negative = inhibition) at 1uM” value is given as 15.4%.
For `Cc1ccc2c(c1)C(c1ccccc1)N(C(=O)c1ccc(Br)o1)CC(=O)N2` (stereo not drawn), the “hERG current change (%, negative = inhibition) at 1uM” value is listed as -17.7%.
For the compound `CN(C)CCCN(C(=O)c1ccco1)c1nc2c(F)cccc2s1.Cl`, the “hERG current change (%, negative = inhibition) at 1uM” value was -62.9%.
Take `Cc1ccc2nc(/C(C#N)=C\c3ccc(Oc4ccc([N+](=O)[O-])cn4)cc3)[nH]c2c1`: the “hERG current change (%, negative = inhibition) at 1uM” value was 16.9%.
For the compound `CC(C)CSC1=NSC2=NC(=O)/C(=C\c3coc4ccccc4c3=O)C(=N)N12`, the “hERG current change (%, negative = inhibition) at 1uM” value amounted to 10.1%.
Turning to `CCOc1ccc(N2CC(=O)N(c3ccc(OCC)cc3)CC2=O)cc1`, the “hERG current change (%, negative = inhibition) at 1uM” value was -19.4%.
The result for `Nc1nc(-c2cccnc2)nn1S(=O)(=O)c1ccccc1` reads 14%.
The result for `COc1ccc(N(CC(=O)NCCSc2ccccn2)S(C)(=O)=O)cc1Cl` reads -1.02%; that for `COCc1ccc(C(=O)N(C)CC2CCCN(CCc3ccccc3F)C2)o1` (stereo not drawn), -11.7%.
Consider `c1nc(NC2CCCCC2)c2[nH]cnc2n1`, for which the “hERG current change (%, negative = inhibition) at 1uM” value came out at 1.6%.
As for `COc1cccc(SCc2noc(C(=O)NCC3CC3)c2C(=O)NCC2CC2)c1`, the figure is -0.807%.
As for `Cc1ccc(NC(=S)NNC(=O)c2nn(C)c(C)c2Cl)cc1`, the figure is 5.27%; as for `COc1ccc(C(c2nnnn2Cc2ccccc2)N2CCN(c3nc4ccccc4s3)CC2)cc1OC.Cl` (stereo not drawn), -1.68%; as for `O=C(Cc1ccccc1)c1ccc(Cl)cc1`, 13.2%.
As to `CCn1c(CNC(=O)c2ccco2)nnc1SCC(=O)c1ccc(F)cc1`, the “hERG current change (%, negative = inhibition) at 1uM” value amounted to 11.6%.
Take `C=CCN1C(=O)C2(NC(=O)c3ccccc3N2)c2ccccc21` (stereo not drawn): the “hERG current change (%, negative = inhibition) at 1uM” value is reported as 5.82%.
The result for `Cc1cccc(C)c1NC1=NCCCCS1` reads -2.45%; that for `COc1cc(C(=O)N/C(=C\c2cn(C)c3ccccc23)C(=O)NCCCn2ccnc2)cc(OC)c1OC`, 8.83%.
Regarding `CCCCOc1ccc(-c2c(C#N)c(N)[nH]c(=S)c2C#N)cc1`, the “hERG current change (%, negative = inhibition) at 1uM” value worked out at 13.7%.
With `O=C(O)Cc1ccc(NC(=O)COc2ccc3ccccc3c2)cc1`, the “hERG current change (%, negative = inhibition) at 1uM” value was found to be 9.36%.
Take `COc1ccccc1OCCn1ccnc1`: the “hERG current change (%, negative = inhibition) at 1uM” value was determined as 14.4%.
Turning to `CC(=O)c1cccc(NC(=O)c2ccncc2)c1`, the “hERG current change (%, negative = inhibition) at 1uM” value is given as -0.871%.
In the case of `Cc1ccc(C2C(=O)N(C3CCC(C)CC3)CC(=O)N2C2CC2)cc1` (stereo not drawn), the “hERG current change (%, negative = inhibition) at 1uM” value is 0.0248%.
Consider `CCOC(=O)N1CCN(C(c2ccc(F)cc2)c2sc3nc(C)nn3c2O)CC1` (stereo not drawn), for which the “hERG current change (%, negative = inhibition) at 1uM” value is 4.66%.
On to `CN(Cc1nc2ccccc2c(=O)[nH]1)CC(O)COCc1ccco1` (stereo not drawn), for which the “hERG current change (%, negative = inhibition) at 1uM” value is listed as 3.53%.
Regarding `O=C(CCNC(=O)c1ccc(Br)cc1)NNC(=O)c1ccccc1O`, the “hERG current change (%, negative = inhibition) at 1uM” value was 6.62%.
For `Cc1ccc(CNC(=O)C2CN(S(C)(=O)=O)c3cc(Cl)ccc3O2)cc1` (stereo not drawn), the “hERG current change (%, negative = inhibition) at 1uM” value was -7.01%.
For `COc1cccc(NC(=S)N(Cc2ccccn2)Cc2ccccc2Cl)c1`, the “hERG current change (%, negative = inhibition) at 1uM” value is on record as 8.48%.
For `Cc1ccc(Cn2nnc3c(=O)[nH]c(C4CCN(C(=O)c5cccs5)CC4)nc32)cc1`, the “hERG current change (%, negative = inhibition) at 1uM” value is listed as -2.57%.
Consider `CCCSC1=C(C#N)C(c2ccccc2C)C(C(=O)OC)C(=O)N1` (stereo not drawn), for which the “hERG current change (%, negative = inhibition) at 1uM” value was 16.2%.
Turning to `Oc1ccc(C[C@H]2CNCCN2CC2CCCCC2)cc1`, the “hERG current change (%, negative = inhibition) at 1uM” value worked out at 8.22%.
Consider `CCOc1ccc(NC(=O)CN2C(=O)NC(CCSC)C2=O)cc1` (stereo not drawn), for which the “hERG current change (%, negative = inhibition) at 1uM” value was 4.24%.
As for `C[C@H](/C=C/[C@@]1(O)[C@H](C)C[C@H](O)CC1(C)C)O[C@@H]1O[C@H](CO)[C@@H](O)[C@H](O)[C@H]1O`, the figure is 13.2%.
On to `COc1cccc(CN2CCC(n3nccc3NC(=O)CCOc3ccccc3)CC2)c1O`, for which the “hERG current change (%, negative = inhibition) at 1uM” value is -16.9%.
Regarding `CCCC(NS(=O)(=O)c1ccc(Br)cc1)C(=O)O` (stereo not drawn), the “hERG current change (%, negative = inhibition) at 1uM” value is recorded as -5.95%.
Regarding `OC(C#CCN1CCCC1)(c1ccccc1)c1cccc(F)c1` (stereo not drawn), the “hERG current change (%, negative = inhibition) at 1uM” value was -2.08%.
Take `CC(=O)Nc1ccc(OC(=O)Oc2ccc(NC(C)=O)cc2)cc1`: the “hERG current change (%, negative = inhibition) at 1uM” value is recorded as 1.86%.
As for `CC1=CN2C(=N)/C(=C/c3cn(CCCOc4ccccc4C)c4ccccc34)C(=O)N=C2S1`, the “hERG current change (%, negative = inhibition) at 1uM” value is 12.8%.
Consider `[O-][n+]1c2cc(C(F)(F)F)ccc2c2n1CCN=C2c1ccc(Cl)cc1`, for which the “hERG current change (%, negative = inhibition) at 1uM” value was -28.3%.
For `COc1ccc(C(=O)N2CCCC(C(=O)N3CCN(c4ccccc4)CC3)C2)cc1` (stereo not drawn), the “hERG current change (%, negative = inhibition) at 1uM” value worked out at 7.45%.
`Cc1ccc(CNC(=O)CCc2nnc(Cc3ccc(-c4ccccc4)cc3)o2)o1`: the “hERG current change (%, negative = inhibition) at 1uM” value is 2.89%.
The result for `Cc1cc(C)c2c(n1)nn1c(NCCN3CCOCC3)cc(C)nc21` reads 16.1%; that for `O=c1[nH]cnc2c1nc(NCc1ccccc1)n2C1O[C@@H](CO)[C@H](O)[C@@H]1O` (stereo partly drawn), 15.7%; that for `Nc1ccc(C(=O)Nc2ccc3nc(-c4cccnc4)[nH]c3c2)cc1`, 14.2%.
As for `CC(C)(C)c1nc(-c2ccccc2)nc2c1OCCC2`, the “hERG current change (%, negative = inhibition) at 1uM” value amounted to 15.6%.
The result for `NC(=O)N1CCCC1C(=O)Nc1ccc(Cl)c(Cl)c1` (stereo not drawn) reads 11.3%.
Take `CCOc1cccc(C(=O)Nc2cnn(Cc3ccccc3)c2)c1`: the “hERG current change (%, negative = inhibition) at 1uM” value was 10.7%.
With `O=C(O)c1ccccc1SC1CC(=O)N(c2ccc3c(c2)OCO3)C1=O` (stereo not drawn), the “hERG current change (%, negative = inhibition) at 1uM” value is recorded as 6.89%.
As for `O=[N+]([O-])c1ccc2c(c1)C(N1CCOCC1)/C(=C/C1(O)CCCCC1)O2` (stereo not drawn), the figure is 0.6%.
With `C1=Nc2c(NCc3ccccc3)ncnc2Oc2ccccc21`, the “hERG current change (%, negative = inhibition) at 1uM” value is 5.41%.
The result for `COc1ccccc1NS(=O)(=O)c1ccc(C)c(NC(=O)C2CCCO2)c1` (stereo not drawn) reads 9.66%; that for `O=C(NCCc1ccc(Cl)cc1)C1CCCO1` (stereo not drawn), 12.2%.
On to `Cl.O=C(NCc1ccncc1)c1cccc(Cn2cc(Br)cn2)c1`, for which the “hERG current change (%, negative = inhibition) at 1uM” value amounted to 8.34%.

The values above are taken from PMC4336329 (PLoS ONE, 2015).
